Experimental data: the supplement of paper PMC10600219
Where a name gives a salt, the structure may show the parent alone. ± gives the standard deviation of the averaged measurements. The full ranking holds about 2,800 compounds; the median of “cell viability relative to vehicle” is about 1.1, and the lowest 2% start at about 0.19. The list shows a part of the results.

The compounds below were run on NCI-H2228 parental (assay: cell viability relative to vehicle (fraction of vehicle); NCI-H2228 is an ALK-positive lung cancer line and DTP means drug-tolerant persister; higher = less growth inhibition). Details: 100 nM; treatment time 6 days.
Procedure, shortened: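 Each value is viability relative to vehicle-treated cells, measured as ATP with the CellTiter-Glo 3D Cell Viability Assay. Parental NCI-H2228 cells and drug-tolerant persisters (1000 nM targeted drug, 13 days) in 384-well plates received the 3114-agent TargetMol anti-cancer compound library at 100 nM, or DMSO, and were read 6 days later.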
`Cc1nc2n(c(=O)c1CCN1CCC(c3noc4cc(F)ccc34)CC1)CCCC2O` (stereo not given) [Paliperidone] gave a cell viability of 1.17.
`C=CCn1c(=O)c2cnc(Nc3ccc(N4CCN(C)CC4)cc3)nc2n1-c1cccc(C(C)(C)O)n1` [Adavosertib] was tested, and the cell viability was 0.752.
Work on `CC(=O)OCC1=C(C(=O)O)N2C(=O)[C@@H](NC(=O)Cc3cccs3)[C@H]2SC1` [Cephalothin sodium] yielded a cell viability of 1.03.
With `O=C(Nc1cccc2cccnc12)c1ccc(N2C(=O)[C@@H]3[C@H](C2=O)[C@@H]2C=C[C@H]3C2)cc1` [IWR-1-endo] the cell viability was 1.09.
`COc1c(O)cc2oc3cc(O)c(CC=C(C)C)c(O)c3c(=O)c2c1CC=C(C)C` [Mangostin] was tested, and the cell viability was 1.14.
With `CC1(C)S[C@@H]2[C@H](NC(=O)Cc3ccccc3)C(=O)N2[C@H]1C(=O)O` [Penicillin G sodium salt] the cell viability was 1.3.
`CCCCc1nc(Cl)c(CO)n1Cc1ccc(-c2ccccc2-c2nnn[nH]2)cc1` [Losartan potassium] gave a cell viability of 1.02.
With `CCCCc1nc(Cl)c(CO)n1Cc1ccc(-c2ccccc2-c2nnn[nH]2)cc1` [Losartan] the cell viability was 1.27.
`OC[C@H]1O[C@@H](Oc2ccc3c(c2)OC[C@H]2c4cc5c(cc4O[C@@H]32)OCO5)[C@H](O)[C@@H](O)[C@@H]1O` [Trifolirhizin] showed a cell viability of 1.02.
`O=C(O)CCNC(=O)c1ccc(/N=N/c2ccc(O)c(C(=O)O)c2)cc1` [Balsalazide disodium salt dihydrate] showed a cell viability of 1.05.
With `CCOc1cc(N)c(Cl)cc1C(=O)NCC1CN(Cc2ccc(F)cc2)CCO1` (stereo not given) [Mosapride Citrate] the cell viability was 0.96.
Work on `COC(=O)[C@H](CCSC)NC(=O)c1ccc(NC[C@@H](N)CS)cc1-c1ccccc1` [FTI 277 hydrochloride] yielded a cell viability of 0.897.
Compound `Cc1cccc(Nc2ccccc2C(=O)O)c1C` [Mefenamic acid] has a cell viability of 1.1.
`CCC(C)n1ncn(-c2ccc(N3CCN(c4ccc(OCC5COC(Cn6cncn6)(c6ccc(Cl)cc6Cl)O5)cc4)CC3)cc2)c1=O` (stereo not given) [Itraconazole] was tested, and the cell viability was 0.989.
`C[n+]1ccccc1/C=N/O` [Pralidoxime Chloride] gave a cell viability of 1.05.
In the case of `CN(C)CCNC(=O)c1cccn2c(=O)c3cc4ccccc4cc3nc12`, the cell viability is reported as 0.847.
`Cc1c(CN2CCN(c3cccc(C(F)(F)F)c3)CC2)cc(-c2ccccc2)n1NC(=O)c1ccncc1` [Sudoterb free base] gave a cell viability of 1.05.
In the case of `C[C@H]1[C@H](OC(=O)CCC(=O)O)O[C@@H]2O[C@@]3(C)CC[C@H]4[C@H](C)CC[C@@H]1[C@@]24OO3` [Artesunate], the cell viability is reported as 1.18.
In the case of `O=C(CNc1ccc2ccccc2c1)N/N=C/c1cc(Br)c(O)c(Br)c1O`, the cell viability is reported as 1.05.
Work on `Cc1ccsc1C(=CCCN1CCC[C@@H](C(=O)O)C1)c1sccc1C` [Tiagabine] yielded a cell viability of 0.877.
In the case of `O=C1c2c(O)cc(O)cc2O[C@H](c2cc(O)c(O)c(O)c2)[C@H]1O` [Dihydromyricetin], the cell viability is reported as 1.03.
`CNCCCN1c2ccccc2CCc2ccccc21` [Desipramine hydrochloride] showed a cell viability of 1.11.
`Cc1cc(C)c(CNC(=O)c2cc(-c3ccc(N4CCN(C)CC4)nc3)cc3c2c(C)cn3C(C)C)c(=O)[nH]1` showed a cell viability of 1.28.
In the case of `O=C(O[C@@H]1Cc2c(O)cc(O)cc2O[C@H]1c1cc(O)c(O)c(O)c1)c1cc(O)c(O)c(O)c1` [(-)-Gallocatechin gallate], the cell viability is reported as 1.07.
In the case of `CC(C)(C(=O)NCC(F)(F)C(F)(F)F)C(=O)N[C@@H]1C(=O)Nc2ccccc2-c2ccccc21`, the cell viability is reported as 1.16.
With `O=c1[nH]cnc2c1ncn2[C@H]1CC[C@@H](CO)O1` [Didanosine] the cell viability was 1.11.
`CN1CCN(c2ccc(OC(F)(F)F)c(Nc3ncc4c(n3)-c3c(c(C(N)=O)nn3CCO)CC4)c2)CC1` gave a cell viability of 0.168.
`Nc1nc(O)c2ncn(CCC(CO)CO)c2n1` [Penciclovir] gave a cell viability of 1.04.
In the case of `Fc1ccc([C@@H]2CCNC[C@H]2COc2ccc3c(c2)OCO3)cc1` [Paroxetine hydrochloride], the cell viability is reported as 1.13.
`Nc1ccc(S(=O)(=O)NCCc2ccccc2)cc1` was tested, and the cell viability was 0.952.
For `Cn1c(O)c(C2=c3ccccc3=NC2=O)c2ccccc21` [Methylisoindigotin], the cell viability was 0.86.
For `C[C@H]1COc2c(N3CCN(C)CC3)c(F)cc3c(=O)c(C(=O)O)cn1c23` [Levofloxacin Hemihydrate], the cell viability was 1.26.
`CC(C)=CCC[C@](C)(O[C@@H]1O[C@H](CO[C@@H]2O[C@H](CO)[C@@H](O)[C@H](O)[C@H]2O)[C@@H](O)[C@H](O)[C@H]1O)[C@H]1CC[C@]2(C)[C@@H]1[C@H](O)C[C@@H]1[C@@]3(C)CC[C@H](O[C@@H]4O[C@H](CO)[C@@H](O)[C@H](O)[C@H]4O[C@@H]4O[C@H](CO)[C@@H](O)[C@H](O)[C@H]4O)C(C)(C)[C@@H]3CC[C@]12C` [Ginsenoside Rb1] was tested, and the cell viability was 1.06.
Compound `CCCC(=O)OCOC(=O)C1=C(C)NC(C)=C(C(=O)OC)C1c1cccc(Cl)c1Cl` (stereo not given) [Clevidipine butyrate] has a cell viability of 1.13.
`CN1CCC(OC(c2ccccc2)c2ccccc2)CC1` [Diphenylpyraline hydrochloride] gave a cell viability of 1.15.
`COc1cc(/C=C/C(=O)NCCn2c(C(F)(F)F)cc3ccccc32)cc(OC)c1OC` showed a cell viability of 1.05.
`CC(C)=CCOc1c2ccoc2cc2oc(=O)ccc12` [Isoimperatorin] showed a cell viability of 1.06.
Work on `C/C=C1\[C@H]2C=C(C)C[C@]1(N)c1ccc(=O)[nH]c1C2` [(-)-Huperzine A] yielded a cell viability of 1.1.
`CN1CCN(C2CCN(C(=O)Nc3cc(Oc4ccc(NC(=O)C5(C(=O)Nc6ccc(F)cc6)CC5)c(F)c4)ccn3)CC2)CC1` [Golvatinib] was tested, and the cell viability was 1.13.
Work on `C[N+](C)(C)CCO.[Cl-]` [Choline chloride] yielded a cell viability of 1.01.
In the case of `Cn1cc(-c2ccc3nnc(Sc4ccc5ncccc5c4)n3n2)cn1`, the cell viability is reported as 1.28.
With `Clc1ccc(Nc2nnc(Cc3ccncc3)c3ccccc23)cc1` [Vatalanib 2HCl] the cell viability was 1.06.
`O=C1NC(=O)/C(=C/c2cccc(C(F)(F)F)c2)S1` was tested, and the cell viability was 1.03 ± 0.056.
With `Cc1cc(O)c2c(c1)C(=O)c1cc(O)cc(O)c1C2=O` [Emodin] the cell viability was 1.01.
Work on `COC(=O)c1ccc2c(C(=Nc3ccc(N(C)C(=O)CN4CCN(C)CC4)cc3)c3ccccc3)c(O)[nH]c2c1` [Nintedanib Ethanesulfonate Salt] yielded a cell viability of 1.03.
